In this assay the target is T1, human BCMA (B-cell maturation antigen) (human, UniProt Q02223 1-184).
T1 sequence (looked up): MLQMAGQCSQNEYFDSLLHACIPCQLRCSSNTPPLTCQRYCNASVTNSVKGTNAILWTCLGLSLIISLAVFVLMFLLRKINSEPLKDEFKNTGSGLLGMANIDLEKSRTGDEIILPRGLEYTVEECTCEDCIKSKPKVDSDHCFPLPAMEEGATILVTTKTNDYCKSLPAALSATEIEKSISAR
The experiment in a line: cell-based or functional assay.

The record followed here is patent US20200179511A1 (Novartis, published 2020).

B1: BCMA×CD3 bispecific antibody BQ76 (bispecific antibody, human IgG1, kappa)
heavy: [here about 100 residues without letters]VAPYFAPFDYWGQGTLVTVSSASTKGPSVFPLAPSSKSTSGGTAALGCLVKDYFPEPVTVSWNSGALTSGVHTFPAVLQSSGLYSLSSVVTVPSSSLGTQTYICNVNHKPSNTKVDKRVEPKSCDKTHTCPPCPAPELLGGPSVFLFPPKPKDTLMISRTPEVTCVVVDVSHEDPEVKFNWYVDGVEVHNAKTKPREEQYASTYRVVSVLTVLHQDWLNGKEYKCKVSNKALPAPIEKTISKAKGQPREPQVCTLPPSREEMTKNQVSLSCAVKGFYPSDIAVEWESNGQPENNYKTTPPVLDSDGSFFLVSKLTVDKSRWQQGNVFSCSVMHEALHNHYTQKSLSLSPGK
light: [here about 100 residues without letters][here about 120 residues without letters]
chain: EVQLVESGGGLVQPGGSLKLSCAASGFTFNTYAMNWVRQASGKGLEWVGRIRSKYNNYATYYADSVKDRFTISRDDSKSTLYLQMNSLKTEDTAVYYCVRHGNFGNSYVSWFAYWGQGTLVTVSSGGGGSGGGGSGGGGSGGGGSQAVVTQEPSLTVSPGGTVTLTCRSSTGAVTTSNYANWVQQKPGQAPRGLIGGTNKRAPWTPARFSGSLLGDKAALTLSGAQPEDEAEYFCALWYSNLWVFGGGTKLTVLGGGGS[here human IgG1 Fc with changes without letters]
For the molecule B1, the “fold enhancement of RTCC EC50 upon GSI treatment” value was no less than 10 fold.
